Test results from patent US20090291975A1, “DUAL OPIOID PAIN THERAPY” (priority 2008, published 2009).

What was measured:
[1] = tested on: patients with chronic moderate to severe, non-cancer pain; test: Study 1: Phase II randomized double-blind crossover, pain relief (VAS), Q8001 vs morphine; format: in vivo, human
[2] = tested on: patients with chronic moderate to severe, non-cancer pain; test: Study 2: Phase II randomized double-blind crossover, pain relief (VAS), Q8002 vs morphine
[3] = mean reduction in VAS from baseline

Structure (SMILES): CN1CC[C@]23c4c5ccc(O)c4O[C@H]2[C@@H](O)C=C[C@H]3[C@H]1C5 [Morphine, morphine]
- PAIN SCORE (VAS) At DAYS 4-5 ([1]; days 4-5): 4
- % PAIN REDUCTION [1, 3]: 11%
- PAIN SCORE (VAS) At DAYS 4-5 ([2]; days 4-5): 3.8
- % PAIN REDUCTION [2, 3]: 21%
